Data: the supplement of paper PMC8813932
Structures can show the parent of a compound that is named as a salt. ± gives the standard deviation of the averaged measurements. The list shows a part of the results. Repeats are few or missing, and single values can be far off.

Tests used:
Test in all cases: log2 surviving fraction relative to plate median (drug vs vehicle, or drug+dl922-947 vs dl922-947 alone); ovarian cancer lines: OVCAR4 is platinum-sensitive while Ov4Cis resists cisplatin and Ov4Carbo carboplatin; higher = more cell survival
Settings in all cases: compound concentration: 10 uM, 192 h
[1] = test system: OVCAR4
[2] = test system: Ov4Carbo
[3] = test system: Ov4Cis
[4] = dl922-947 oncolytic adenovirus co-treatment: MOI 10
[5] = dl922-947 oncolytic adenovirus co-treatment: none

| SMILES | log2 surviving fraction [1, 4] | log2 surviving fraction [1, 5] | log2 surviving fraction [2, 4] | log2 surviving fraction [2, 5] | log2 surviving fraction [3, 4] | log2 surviving fraction [3, 5] |
| --- | --- | --- | --- | --- | --- | --- |
| O=c1[nH]c2ccccc2n1C1CCN(CCCC(c2ccc(F)cc2)c2ccc(F)cc2)CC1 [Pimozide] | -3.39 ± 0.81 | -2.08 ± 2.4 | -4.9 | -0.0109 | -5.49 | -6.06 |
| CN1CCN(c2cc3c(cc2F)c(=O)c(C(=O)O)cn3-c2ccc(F)cc2)CC1 [Difloxacin HCl] | 0.462 ± 0.025 | 0.2 ± 0.087 | -0.703 | 0.193 | -1.45 | -0.449 |
| O=C(O)[C@H](CC(=O)N1C[C@H]2CCCC[C@H]2C1)Cc1ccccc1 [Mitiglinide calcium] | 0.851 ± 0.71 | 0.687 ± 0.76 | -0.357 | -0.104 | -0.102 | 1.07 |
| CCCc1nc2c(C)cc(-c3nc4ccccc4n3C)cc2n1Cc1ccc(-c2ccccc2C(=O)O)cc1 [Telmisartan (Micardis)] | -0.38 ± 0.68 | -0.377 ± 0.47 | -0.179 | 1.13 | 0.179 | -0.755 |
| Cn1cnc([N+](=O)[O-])c1Sc1ncnc2[nH]cnc12 [Azathioprine (Azasan, Imuran)] | -0.729 ± 0.072 | -3.76 ± 1.5 | -0.743 | -5.78 | -0.331 | -1.69 |
| Cc1cnc(NC(=O)C2=C(O)c3ccccc3S(=O)(=O)N2C)s1 [Meloxicam (Mobic)] | -0.652 ± 0.39 | -0.087 ± 0.28 | 0.366 | 0.469 | -0.468 | -0.481 |
| C#C[C@]1(O)CC[C@H]2[C@@H]3CCC4=CC(=O)CC[C@@H]4[C@H]3CC[C@@]21CC [Levonorgestrel (Levonelle)] | 0.0575 ± 0.52 | -0.0993 ± 0.26 | 0.189 | 0.497 | 0.244 | 0.0581 |
| C#C[C@]1(O)CC[C@H]2[C@@H]3CCC4=CC(=O)CC[C@]4(C)[C@H]3CC[C@@]21C [Ethisterone] | 0.336 ± 0.43 | 0.11 ± 0.71 | 0.603 | -0.846 | -0.522 | 0.914 |
| CCOC(=O)[C@H](CCc1ccccc1)N[C@H]1CCCN2CCC[C@@H](C(=O)O)N2C1=O [Cilazapril monohydrate (Inhibace)] | -0.12 ± 0.62 | -0.01 ± 0.56 | -0.742 | 0.319 | -0.336 | -0.267 |
| CC(=O)Nc1c(I)c(C(=O)N[C@H]2C(O)O[C@H](CO)[C@@H](O)[C@@H]2O)c(I)c(N(C)C(C)=O)c1I (stereo partly specified) [Metrizamide] | 0.728 ± 0.77 | 0.814 ± 0.41 | 0.276 | 0.604 | 0.468 | -0.152 |
| C[N+]1(C)CCC(=C(c2ccccc2)c2ccccc2)CC1 [Diphemanil methylsulfate] | 0.306 ± 0.26 | 0.456 ± 0.18 | -0.459 | 0.568 | -0.0363 | -0.0291 |
| Cc1cn(-c2cc(NC(=O)c3ccc(C)c(Nc4nccc(-c5cccnc5)n4)c3)cc(C(F)(F)F)c2)cn1 [Nilotinib (AMN-107)] | 1.78 ± 0.027 | 1.12 ± 0.025 | 0.851 | 2.7 | 0.973 | 1.58 |
| C[C@@H]1CC(=O)NN=C1c1ccc(NN=C(C#N)C#N)cc1 [Levosimendan] | -0.182 ± 0.23 | 0.119 ± 0.61 | 1.2 | 0.796 | 2.02 | 0.377 |
| CN1CCCC(n2nc(Cc3ccc(Cl)cc3)c3ccccc3c2=O)CC1 (stereo unspecified) [Azelastine hydrochloride (Astelin)] | -4.63 ± 0.67 | -2.62 ± 1.2 | -4 | -2.17 | -6.84 | -3.5 |
| CC(C)N(CCNC(=O)CN1CCCC1=O)C(C)C [Pramiracetam] | 0.0799 ± 0.65 | 0.0728 ± 0.54 | -0.782 | -0.0993 | 0.202 | -0.167 |
| O=C(C[S+]([O-])Cc1ccco1)NC/C=C\COc1cc(CN2CCCCC2)ccn1 (stereo unspecified) [Lafutidine] | 1.4 ± 0.94 | 0.814 ± 0.75 | 0.912 | 1.05 | 0.28 | 0.942 |
| CCN(CC)CCNC(C(=O)OCCC(C)C)c1ccccc1 (stereo unspecified) [Camylofin Chlorhydrate] | -1.67 ± 0.23 | -0.752 ± 0.41 | -1.91 | -0.507 | -1.05 | -0.253 |
| CC(=O)OCC(=O)[C@@]1(O)CC[C@H]2[C@@H]3CCC4=CC(=O)CC[C@]4(C)[C@H]3C(=O)C[C@@]21C [Cortisone acetate (Cortone)] | 0.265 ± 0.41 | 0.445 ± 0.13 | 1.14 | -0.236 | 1.11 | 0.399 |
| CSc1nc2cc(Cl)c(Oc3cccc(Cl)c3Cl)cc2[nH]1 [Triclabendazole] | 0.336 ± 0.84 | 0.521 ± 0.37 | -0.972 | -1.58 | 0.788 | -1.9 |
| COc1cc2nc(N3CCN(C(=O)c4ccco4)CC3)nc(N)c2cc1OC [Prazosin HCl] | -5.32 ± 1.3 | -3.74 ± 1 | -7.85 | -9.66 | -5.35 | -9.26 |
| c1ccc2[nH]c(-c3cscn3)nc2c1 [Thiabendazole] | -0.399 ± 0.95 | -0.158 ± 0.62 | -0.042 | 0.909 | 0.248 | -0.929 |
| O=c1n(CCCN2CCN(c3cccc(Cl)c3)CC2)nc2ccccn12 [Trazodone hydrochloride (Desyrel)] | 0.149 ± 0.25 | -0.0575 ± 0.88 | 0.506 | -0.265 | 0.342 | 0.486 |
| COc1cc(Cc2cnc(N)nc2N)cc(OC)c1OC [Trimethoprim] | 0.757 ± 1 | 0.86 ± 1 | 1.94 | 1.22 | -0.623 | -0.387 |

| SMILES | log2 surviving fraction [1, 4] | log2 surviving fraction [1, 5] | log2 surviving fraction [2, 4] | log2 surviving fraction [2, 5] | log2 surviving fraction [3, 4] | log2 surviving fraction [3, 5] |
| --- | --- | --- | --- | --- | --- | --- |
| C[C@@H](NCCCc1cccc(C(F)(F)F)c1)c1cccc2ccccc12 [AMG-073 HCl (Cinacalcet hydrochloride)] | -1.88 ± 1.1 | -0.765 ± 0.83 | -2.92 | -6.55 | -4.32 | -4.2 |
| CN1CCC[C@H]1c1cccnc1 [Nicotine Ditartrate] | 0.343 ± 0.7 | -0.485 ± 1.6 | -0.763 | 0.521 | 1.3 | 0.167 |
| Clc1ccc(CSC(Cn2ccnc2)c2ccc(Cl)cc2Cl)cc1 (stereo unspecified) [Sulconazole Nitrate] | -1.65 ± 0.75 | -1.29 ± 0.26 | -1.02 | -3.87 | -0.84 | -3.02 |
| CCN(CC)CC#CCOC(=O)C(O)(c1ccccc1)C1CCCCC1 (stereo unspecified) [Oxybutynin (Ditropan)] | -1.05 ± 0.015 | -0.811 ± 0.21 | 0.00736 | -0.432 | -0.954 | -0.992 |
| CN(Cc1ccc(C(C)(C)C)cc1)Cc1cccc2ccccc12 [Butenafine HCl] | 0.665 ± 0.018 | 0.453 ± 0.16 | 0.121 | -0.853 | 0.704 | 0.522 |
| COc1ccc2cccc(CCNC(C)=O)c2c1 [Agomelatine] | 0.649 ± 0.075 | 1.04 ± 0.47 | 1.2 | 1.63 | 1.84 | 0.453 |
| CC(=O)SCC(Cc1ccccc1)C(=O)NCC(=O)OCc1ccccc1 (stereo unspecified) [Racecadotril (Acetorphan)] | 0.236 ± 0.25 | 0.267 ± 0.17 | -0.405 | 0.284 | 0.673 | 0.0459 |
| COc1ccc(-c2nc3cc(C4=NNC(=O)CC4C)ccc3[nH]2)cc1 (stereo unspecified) [Pimobendan (Vetmedin)] | -2.62 ± 0.1 | -3.1 ± 0.084 | -2.05 | -5.1 | -2.54 | -4.14 |
| C=CC[C@]1(O)CC[C@H]2[C@@H]3CCC4=CC(=O)CCC4=C3C=C[C@@]21C [Altrenogest] | -0.619 ± 0.58 | -0.958 ± 0.23 | -0.603 | 0.707 | -0.839 | 0.0308 |
| N[C@@H]1CONC1=O [D-Cycloserine] | 0.731 ± 0.41 | 0.246 ± 0.5 | 0.266 | -0.076 | 0.989 | 0.254 |
| COc1cc(/C=C/C(=O)N2CCN(CC(=O)N3CCCC3)CC2)cc(OC)c1OC [Cinepazide maleate] | -0.757 ± 0.033 | 0.482 ± 0.2 | 0.00279 | 0.375 | 0.0396 | -2.4 |
| C[C@H]1[C@H](NC(=O)/C(=N\OC(C)(C)C(=O)O)c2csc(N)n2)C(=O)N1S(=O)(=O)O [Aztreonam (Azactam, Cayston)] | 0.31 ± 0.29 | 0.118 ± 0.6 | 0.243 | -0.589 | 0.563 | 0.767 |
| CC(C)(Sc1cc(C(C)(C)C)c(O)c(C(C)(C)C)c1)Sc1cc(C(C)(C)C)c(O)c(C(C)(C)C)c1 [Probucol] | 0.293 ± 0.32 | 0.369 ± 0.49 | 0.595 | -0.0481 | 0.418 | 0.108 |
| CO[C@H]1/C=C/O[C@@]2(C)Oc3c(C)c(O)c4c(O)c(c(/C=N/N5CCN(C6CCCC6)CC5)c(O)c4c3C2=O)NC(=O)/C(C)=C\C=C\[C@H](C)[C@H](O)[C@@H](C)[C@@H](O)[C@@H](C)[C@H](OC(C)=O)[C@@H]1C [Rifapentine (Priftin)] | -0.691 ± 0.45 | -1.74 ± 0.46 | 0.845 | -1.36 | -0.0451 | -1.82 |
| CO[C@H]1C[C@@H]2CC[C@@H](C)[C@@](O)(O2)C(=O)C(=O)N2CCCC[C@H]2C(=O)O[C@H]([C@H](C)C[C@@H]2CC[C@@H](OCCO)[C@H](OC)C2)CC(=O)[C@H](C)/C=C(\C)[C@@H](O)[C@@H](OC)C(=O)[C@H](C)C[C@H](C)/C=C/C=C/C=C/1C [Everolimus (RAD001)] | -2.1 ± 0.66 | -4.32 ± 3 | -4.02 | -5.68 | -2.11 | -6.05 |
| CC1(O)CCOC(=O)C1 (racemic) [DL-Mevalonic Acid Lactone] | 0.0166 ± 0.64 | 0.236 ± 0.95 | 0.352 | 0.00823 | -0.0383 | -0.134 |
| O=c1[nH]c2ccccc2n1CCCN1CCC(n2c(=O)[nH]c3cc(Cl)ccc32)CC1 [Domperidone (Motilium)] | 0.918 ± 0.95 | -0.107 ± 0.93 | 1.06 | 1.16 | 0.67 | 0.474 |
| NC1CCN(c2c(F)cc3c(=O)c(C(=O)O)cn(C4CC4)c3c2Cl)C1 (stereo unspecified) [Clinafoxacin HCl] | 0.61 ± 0.35 | -3.33 ± 5.2 | 1.24 | 0.376 | 0.204 | -0.597 |
| CCCCCCCCCCCCCCCCCCCCCCO [Docosanol (Abreva)] | 0.144 ± 1.6 | 0.446 ± 0.17 | -0.435 | 0.199 | -0.474 | 0.448 |
| CCC(=O)O[C@]1(C(=O)CCl)[C@@H](C)C[C@H]2[C@@H]3C[C@H](F)C4=CC(=O)C=C[C@]4(C)[C@@]3(F)[C@@H](O)C[C@@]21C [Halobetasol Propionate] | -0.0877 ± 0.46 | -1.73 ± 0.052 | -0.207 | -0.818 | 0.637 | -3.17 |
| CC(=O)OC1CN2CCC1CC2 (stereo unspecified) [Aceclidine HCl] | 0.401 ± 0.45 | 0.748 ± 0.39 | -0.624 | 0.207 | 0.483 | -1.7 |
| C[C@H]1O[C@H](O[C@H]2[C@H](O)[C@@H](O)[C@@H](O[C@H]3[C@H](O)[C@@H](O)C(O)O[C@@H]3CO)O[C@@H]2CO)[C@H](O)[C@@H](O)[C@@H]1N[C@H]1C=C(CO)[C@@H](O)[C@H](O)[C@H]1O (stereo partly specified) [Acarbose] | 1.37 ± 0.34 | 2.36 ± 0.56 | 1.05 | 3.15 | 1.6 | 2.5 |
| CN(C)CCOC(c1ccccc1)c1ccccc1 [Diphenhydramine HCl (Benadryl)] | -0.872 ± 0.28 | 0.08 ± 1 | 0.171 | 0.398 | -0.996 | 0.171 |
